In the RNAGym collection of RNA variant scans (doi:10.7554/elife.90254) one finds self-cleavage data, which are given here for 167 variants.

The source gives no read counts; variants with many changes may rest on few reads.

B1: LINE1-mini (parent)
chain: GGCAGAGCUCAACACAGCGUGGCAAAGUGGCUGUGGCUAGACUGCC

This data set covers variants of B1. The experiment in a line: self-cleavage, relative activity (ratio to wild type); higher = more cleavage; in vitro, sequencing; the parent is a self-cleaving ribozyme.
For G1C C3A A6G C15G A16C U32G, the self-cleavage is 0.01.
As to G1C C10G A14C A16C U20C C37U, the self-cleavage is 0.01.
On to G1A G30U U32A, for which the self-cleavage turned out to be 0.07.
Regarding G1C C18G A24U G27C, the self-cleavage was 0.03.
Next, G1C A14G A24U A25G: 0.02; G1C A6C C8U U34C: 0.08; G1C C23G G27C: 0.01.
With G1C C15U U34A G35U the figure was 0.02; with G1C C10U G22A A24G, 0.04.
Next, G1C A25U G27A C46U: 0.19.
With G1C C23U G35U C42U, the self-cleavage was 0.01.
G1C A16G G19A A26U G36U G40A: the self-cleavage was 0.05.
Next, G1A G29U G33A C45A: 0.01; G1A G44U C46G: 0.06.
For the variant G1C C3U G5U C8A A14G, the self-cleavage came out at 0.1.
Consider G1A U20C U28C G30A, for which the self-cleavage came to 0.13.
On to G1C C8G G33U, for which the self-cleavage is 0.02.
With G1C C8G C18G the figure was 0; with G1C A25G G27C, 0.01; with G1C A11U A14U, 0.03.
For the variant G1C A4U A6U A26U U28C G33C, the self-cleavage is 0.03.
For G1C C3U G19A C37A, the self-cleavage came out at 0.09.
For G1C A4G A12G C13U G17C C37G, the self-cleavage was determined as 0.01.
For G1A G33A A41U, the self-cleavage came out at 0.04.
Next, G1C A24C C45U: 0.11; G1A G29C C42G: 0.03; G1C C13A G30U: 0.
Turning to G1C A14G U28A, the self-cleavage was 0.02.
G1C C10A G40C C46A: the self-cleavage was found to be 0.04.
Take G1A G30A U38G: the self-cleavage is 0.04.
For the variant G1C C13A G33C, the self-cleavage came to 0.01.
With G1C A6C G19A U32C the figure was 0.02; with G1A U20C A41U C46U, 2.06; with G1C C13A U38G, 0.01.
Take G1C A4C A41G: the self-cleavage stood at 0.06.
Take G1A G35A U38G C46G: the self-cleavage amounted to 0.02.
Next, G1C C13U G21C G29U: 0.06; G1C A6C C37G: 0.02; G1C A6G C10U A26U G30C U38A A41U G44A: 0.
For G1C C8U G17U G40U, the self-cleavage is 0.05.
Next, G1C A6U U9A A24G C37A A39C: 0.01; G1C C13G A16G U34C: 0.
Take G1C A4C A11C C23A A26C C31U: the self-cleavage is 0.01.
Next, G1C A6G G17U G22A A25U U28C U34A: 0.03; G1C A12C A14G G22U: 0.01.
Consider G1C A14C G22U G30C, for which the self-cleavage stood at 0.03.
G1C A14G C37A C42U: the self-cleavage was 0.
Next, G1C A25U A26U C31A G33A: 0.02.
For G1C C3U A12C C18U, the self-cleavage is 0.02.
Turning to G1A U9A C13G U28C G36A, the self-cleavage turned out to be 1.46.
G1C A12U U28G A39U: the self-cleavage stood at 0.03.
Next, G1C A4U G5A G29U: 0.1.
As to G1C A16G G36C, the self-cleavage is 0.02.
With G1A U9C A25U A26U U28G U43A, the self-cleavage turned out to be 0.05.
As to G1C A6C C8G U9C U28A U32A G40U, the self-cleavage is 0.01.
Turning to G1C C13U G27U G44A, the self-cleavage turned out to be 0.03.
G1C A11G A16C G30C U38G: the self-cleavage came out at 0.02.
On to G1C C10G A11U G17U A26C U28G C37A U38G, for which the self-cleavage worked out at 0.
Next, G1C C3U A25C: 0.06; G1C A24U A26C U34G C45G: 0.05; G1C A12C C18G G21U G40A: 0.01.
With G1C A12U G35A G36U A39U G40A the figure was 0.04; with G1C C10G C13U, 0.01; with G1C C10A C15U G22A G40A A41G, 0.01.
With G1C A6C G19U U20G G27A C46U the figure was 0.04; with G1C C15A G17A G21U, 0.02; with G1C C13U C37A G44U, 0.02.
G1C C3A A4U G5U A41U: the self-cleavage stood at 0.05.
On to G1C C10G C18G U20G G27C, for which the self-cleavage is 0.01.
As for G1C C3A C8G C37A C46U, the self-cleavage came out at 0.03.
In the case of G1C C8U A16U G35U, the self-cleavage came to 0.01.
In the case of G1C A16C G17A, the self-cleavage came out at 0.03.
Turning to G1C A6G C13A U38G A41U, the self-cleavage amounted to 0.01.
Next, G1C C13A A39U: 0.06; G1C A4C C18U: 0.09; G1C A12U U20A C45A: 0.02.
Next, G1C A11G A41U: 0; G1C C8G G35C C45U: 0.01.
As for G1C C3U C8A, the self-cleavage turned out to be 0.25.
Take G1C A12C G33A G36U: the self-cleavage came to 0.01.
With G1C A4C G17U C31A the figure was 0.15; with G1C C3U G7C A16U, 0.12.
Next, G1C C10A C13A: 0.
Turning to G1C A6C U9A C42A, the self-cleavage came out at 0.01.
Next, G1C C3G C13A A14C G17U: 0.08; G1C C3A G5C G21A G33C U34C G40U A41C: 0.12.
Take G1C C23A G30U C37G G40C A41U: the self-cleavage came to 0.
With G1C C3G G5U C15U U20C A39C the figure was 0.1.
For the variant G1C A4U G19C A41G, the self-cleavage came to 0.
As for G1C C13G A16G G44A, the self-cleavage came out at 0.01.
With G1C C8U U9A the figure was 0.04; with G1C A4G C10G C15G, 0.01; with G1C C18G G22U U28C U43G, 0.
With G1C C10U A11U, the self-cleavage came to 0.01.
Next, G1C C15A G17A A39U: 0.
Take G1C C3U A4U G5A C8A U34G G36A G40C: the self-cleavage is 0.21.
Next, G1A G33A C45G: 0.44.
Next, G1C C10G A14G C15A G19U C37A: 0.
Next, G1A G33U U38G: 0.06; G1A U9C A11C A26G: 0.03; G1A U32A C37U C42U: 0.04.
As for G1C C8A A16G G40U, the self-cleavage came out at 0.01.
Turning to G1C A14G C15A, the self-cleavage came to 0.
In the case of G1C C10A C13G C42A, the self-cleavage stood at 0.01.
For G1C C10A G27C G33U, the self-cleavage was 0.
With G1C A4G U20C U32G C37A the figure was 0.02.
Next, G1C C15A G33U C45U: 0.03.
As to G1C C3U C8G G22U, the self-cleavage amounted to 0.05.
In the case of G1C A16G A26U U34C, the self-cleavage worked out at 0.01.
With G1C A11C G29U the figure was 0.01; with G1C A14G U43C, 0.03; with G1C C13A G44U, 0.03.
With G1C A12G C15G A25C G27U G29C G35C the figure was 0; with G1C C13A A24C C31U G35U, 0.01.
With G1C A4U A11C C13G G35C G40C G44A C46A the figure was 0.
In the case of G1A G33C G40A U43C C46U, the self-cleavage turned out to be 0.02.
Next, G1C C10A G27C C42U: 0.02; G1C C23A G29C C46G: 0.06.
In the case of G1C C3G A4G G27U, the self-cleavage worked out at 0.05.
Consider G1C A26C U32C C42G, for which the self-cleavage stood at 0.
Next, G1A U9C G19A A24G C45U C46G: 0.07; G1A U34A C37G A39U: 0.04.
Next, G1A U9C G22C A26U A41U: 0.23; G1C A4C C18A G33C U38C: 0.01.
With G1C C18A G19C G27U U28G G40A the figure was 0.04; with G1C C13U A16U C31A, 0.02.
Turning to G1C C3G A12C C37G C45U, the self-cleavage is 0.01.
On to G1C C15A C46G, for which the self-cleavage was 0.03.
With G1C C3U A6U A11U the figure was 0.03.
As for G1C C10U U28C C46A, the self-cleavage is 0.1.
Regarding G1C C13A G29A, the self-cleavage was 0.11.
Next, G1A U20G C23G G44C: 0.05; G1C A6C C8G U9C U43A: 0.01.
In the case of G1C C10G C13A G29U, the self-cleavage is 0.
Next, G1C A16G C42U U43C: 0.03; G1C A4C A6U C13A A26C U43G: 0.
As to G1C C3A G7U C15A A16C, the self-cleavage is 0.04.
Next, G1A U9G G19A G27U G36A G40U: 1.52; G1C A14G G33A: 0.
Next, G1C C3A C8G C13G G17U A39U: 0.02.
Take G1C C3G C10A A26U G29A: the self-cleavage amounted to 0.02.
As for G1A U9A C37A, the self-cleavage was found to be 0.69.
On to G1C C8U A26U G33A G40U U43C G44U, for which the self-cleavage was 0.02.
As for G1C C8A G30U U32G, the self-cleavage came out at 0.11.
In the case of G1C C8U U9G G33C, the self-cleavage was found to be 0.02.
For the variant G1A U9G A11U U28G U38C, the self-cleavage stood at 0.02.
G1C C18A G29A G35C G36U: the self-cleavage turned out to be 0.13.
With G1C A12G A26C G30U G44A the figure was 0.02; with G1A U32A G35U G36A C45A, 0.02; with G1C A14C G21U, 0.02.
As for G1C C3U A14C G33C C42U, the self-cleavage was determined as 0.
With G1C C13U A39U the figure was 0; with G1C C10U A11U C31G G40C U43C C45A, 0.
Next, G1A U20G G30A: 0.42; G1C A4C C10U A16C A25G C45A: 0.
Consider G1A G30C G33U, for which the self-cleavage was 0.24.
Consider G1C C13U U28G, for which the self-cleavage is 0.
With G1C A4U C8U the figure was 0.03; with G1C C15U A26C, 0.18; with G1C C15A C23U A39G, 0.01.
Next, G1A U20A U38G: 0.01.
Next, G1A U20A U38C: 0.28; G1C C3A G5C A11G G33A: 0.04.
Regarding G1C A12U C15G C23U U43A, the self-cleavage was determined as 0.
Next, G1C A4U C15U: 0.01; G1C C3A C15U C23U G29C C31G: 0.15; G1A U9A C15U U20A C31G: 1.12.
